Assay results reported in article PMC10668032.
Some of the results follow. At the low end of the ranking the order means little.

What follows are sequences tested against SIX1-Q177R homeodomain (UniProt Q15475) (assay: universal protein binding microarray). Conditions: Universal all-10-mer PBM (8x60K, AMADID 030236), 300 nM GST-tagged protein, Alexa Fluor 488 anti-GST; buffer, salt, pH and temperature not stated; high values mean tight binding; most listed sequences are background and not binding sites; double strand, one strand shown.

Sequence | binding signal
ACGGACTA | -0.108 E-score
ACCTAAGT | -0.052 E-score
CGCTTCGA | 0.00389 E-score
CGTGCGGA | -0.0768 E-score
GCATGGAA | -0.128 E-score
AGAAGCTC | -0.316 E-score
AAATACCC | 0.0467 E-score
AATGTTTA | -0.231 E-score
GGCGCCAA | -0.169 E-score
ATGTCCTA | -0.00932 E-score
CCCAGCAA | -0.0696 E-score
AAGGGCAA | -0.0942 E-score
AAAAGGGA | -0.0864 E-score
GGTAGTAC | 0.0786 E-score
CCGCTGTA | -0.0643 E-score
GGACGACC | 0.0234 E-score
AATTGGAT | 0.00487 E-score
AAACCTTC | 0.00346 E-score
AGGAGAAC | 0.0487 E-score
CTTATTAA | -0.0906 E-score
AAACTTTA | -0.124 E-score
CCCTGCGA | -0.00361 E-score
CTAATAAC | 0.0482 E-score
GATGGGCC | -0.266 E-score
GGACGGAC | -0.0176 E-score

Sequence | binding signal
AAGATATT | 0.00664 E-score
ACAAGTTA | -0.0966 E-score
TATCATCA | -0.0496 E-score
CAGTACTG | 0.0989 E-score
AATTGCAT | -0.269 E-score
CTGCTAAC | -0.0377 E-score
CTAGTCAA | -0.163 E-score
CCCATTAA | 0.0458 E-score
AAAATAGT | -0.104 E-score
CGTAGCAC | 0.172 E-score
AGTCTGGG | -0.148 E-score
ACAGTTCA | -0.00547 E-score
CGCAAAAC | 0.0653 E-score
GATTGTAC | -0.206 E-score
ACGGTAGA | 0.103 E-score
GGGACGAC | 0.0211 E-score
CGTGGACA | 0.0767 E-score
CATAATAA | 0.0227 E-score
GCAAGACA | 0.0505 E-score
ACCTACTG | 0.105 E-score
AACAATAT | -0.122 E-score
AGGACCGA | -0.197 E-score
GTGCACGA | 0.108 E-score
CGATGGGC | -0.223 E-score
GACCTAAA | -0.23 E-score

Sequence | binding signal
AAAGTAGA | -0.203 E-score
CACGTACG | 0.167 E-score
AACCACCC | 0.0693 E-score
GTCTTGAA | -0.135 E-score
GGCTCTAA | -0.0892 E-score
GACGGCAA | -0.0789 E-score
ACCCTGAG | 0.245 E-score
ACCTAGGG | 0.0206 E-score
CCATGTTC | -0.248 E-score
AACTGTTG | -0.0919 E-score
CTTAAATC | -0.107 E-score
CTACCTTC | -0.00206 E-score
GCTATCAA | -0.116 E-score
ATACAGAT | -0.184 E-score
GGAATATA | -0.229 E-score
CTTCAACA | 0.291 E-score
CTAGATGC | 0.0939 E-score
AGGTGCAT | 0.132 E-score
AGCCCTAT | -0.128 E-score
AATCTAAT | -0.224 E-score
ACACACTA | 0.267 E-score
AACGTAGC | -0.188 E-score
CTCGCTTC | -0.0499 E-score
ACAAAGAT | -0.2 E-score
CTCGGTAA | -0.00451 E-score

Sequence | binding signal
AAAACAGT | -0.147 E-score
GCGATACA | 0.0566 E-score
AACCCAGG | 0.116 E-score
ACAATACT | -0.0405 E-score
CGTGAATC | -0.0854 E-score
ATAATAGC | -0.259 E-score
TACTGTCA | -0.0491 E-score
CCCCTGAG | 0.16 E-score
ATACTACA | 0.257 E-score
CCGGACTC | -0.00484 E-score
AGCCTTCG | -0.131 E-score
AAGACGGA | -0.0267 E-score
GCCAGACA | -0.0215 E-score
AGCAGCTC | -0.218 E-score
AATGCTCA | -0.262 E-score
CGGGCAAG | -0.143 E-score
CACGCGCC | 0.0899 E-score
GACGAATC | -0.0478 E-score
TTACGTAA | -0.132 E-score
GTGTGGAA | 0.193 E-score
ACATACGG | -0.105 E-score
GGCTCTCA | -0.0529 E-score
CTGTCTCA | -0.248 E-score
CTTTGAAC | -0.0558 E-score
GCCTGAAA | -0.171 E-score

Sequence | binding signal
AATGCAGG | 0.09 E-score
CCTTGTTA | 0.104 E-score
AACGTGTC | 0.348 E-score
GCAACAAC | -0.138 E-score
CATAGCTA | -0.187 E-score
GACGGAGC | -0.16 E-score
ATAAGGAG | -0.0209 E-score
GGCATCAA | -0.0214 E-score
ACCCTGCA | 0.126 E-score
AGATGCCT | -0.0963 E-score
CCTAACCG | -0.0833 E-score
GGTCACTA | 0.0841 E-score
ACGAAGAG | 0.000745 E-score
AGTGCCAG | 0.0886 E-score
TCTCAAAA | -0.0633 E-score
AGGTCATG | -0.21 E-score
AAACCCTG | 0.0476 E-score
CAGTCGGA | -0.128 E-score
TCTTTACA | 0.0412 E-score
GATAGAGA | -0.191 E-score
ATCAACGC | -0.0859 E-score
GATAAAGC | -0.327 E-score
ACCACCAA | 0.0115 E-score
ATATTCGC | -0.103 E-score
GCCACCGC | -0.181 E-score

Sequence | binding signal
CCTTTCAA | -0.0648 E-score
ACTTCCAT | -0.129 E-score
TATGAGAA | -0.118 E-score
CCTCTGTC | -0.0993 E-score
ATAGCAAG | -0.111 E-score
CTATGCGA | 0.0083 E-score
CTCGAATC | -0.00424 E-score
AGTACGAC | -0.0218 E-score
CTATCCCC | 0.104 E-score
ATGTAACC | -0.0301 E-score
AACTCAAA | -0.0671 E-score
AAAACAAG | -0.126 E-score
TATTGCAA | -0.0155 E-score
AGTCGTAA | -0.091 E-score
CTTTTAAC | -0.12 E-score
AGGTGCGG | 0.187 E-score
AAAAATGT | -0.314 E-score
AGTAAGAT | -0.121 E-score
TCCTGACA | 0.0983 E-score
CGAGTGGC | 0.0371 E-score
ATGGTACA | 0.18 E-score
ACGATCTG | -0.0758 E-score
CGAGTCCA | 0.0587 E-score
AAAAATTG | -0.0634 E-score
TACACAAA | 0.247 E-score

Sequence | binding signal
CCTCGTTC | 0.0187 E-score
CCGTCAAG | -0.198 E-score
ATTGTCTG | 0.0124 E-score
GTCCGCCA | 0.0427 E-score
AGGCTCGA | -0.259 E-score
TAGGGCAA | -0.0796 E-score
ATTGTTTG | -0.234 E-score
GAGAATGC | -0.151 E-score
GAATCCGC | -0.0437 E-score
GCGAGTCA | 0.114 E-score
GGGTAAAC | 0.193 E-score
AAGGTCAC | -0.1 E-score
GTCCATTA | -0.03 E-score
ACGCGAGA | 0.0711 E-score
CAGAGACG | 0.0584 E-score
TCTTACCA | -0.0502 E-score
ATTGCAAG | -0.203 E-score
TGCAAGCA | -0.26 E-score
CCATGCAA | -0.0619 E-score
GCCATACA | -0.0965 E-score
CACTGCAG | 0.0411 E-score
GAAGACGA | 0.0912 E-score
